Data: article PMC4336329 (PLoS ONE, 2015)
About 2,200 (0.71%) of roughly 310,000 compounds showed an effect of 50% or more. The effect is printed as a negative number. The list shows a part of the results.

molecular target: human ether-à-go-go-related gene (hERG) potassium channel (human, UniProt Q12809); experiment: primary screen, population patch clamp on CHO cells stably expressing hERG
Sequence (Q12809 whole entry, looked up): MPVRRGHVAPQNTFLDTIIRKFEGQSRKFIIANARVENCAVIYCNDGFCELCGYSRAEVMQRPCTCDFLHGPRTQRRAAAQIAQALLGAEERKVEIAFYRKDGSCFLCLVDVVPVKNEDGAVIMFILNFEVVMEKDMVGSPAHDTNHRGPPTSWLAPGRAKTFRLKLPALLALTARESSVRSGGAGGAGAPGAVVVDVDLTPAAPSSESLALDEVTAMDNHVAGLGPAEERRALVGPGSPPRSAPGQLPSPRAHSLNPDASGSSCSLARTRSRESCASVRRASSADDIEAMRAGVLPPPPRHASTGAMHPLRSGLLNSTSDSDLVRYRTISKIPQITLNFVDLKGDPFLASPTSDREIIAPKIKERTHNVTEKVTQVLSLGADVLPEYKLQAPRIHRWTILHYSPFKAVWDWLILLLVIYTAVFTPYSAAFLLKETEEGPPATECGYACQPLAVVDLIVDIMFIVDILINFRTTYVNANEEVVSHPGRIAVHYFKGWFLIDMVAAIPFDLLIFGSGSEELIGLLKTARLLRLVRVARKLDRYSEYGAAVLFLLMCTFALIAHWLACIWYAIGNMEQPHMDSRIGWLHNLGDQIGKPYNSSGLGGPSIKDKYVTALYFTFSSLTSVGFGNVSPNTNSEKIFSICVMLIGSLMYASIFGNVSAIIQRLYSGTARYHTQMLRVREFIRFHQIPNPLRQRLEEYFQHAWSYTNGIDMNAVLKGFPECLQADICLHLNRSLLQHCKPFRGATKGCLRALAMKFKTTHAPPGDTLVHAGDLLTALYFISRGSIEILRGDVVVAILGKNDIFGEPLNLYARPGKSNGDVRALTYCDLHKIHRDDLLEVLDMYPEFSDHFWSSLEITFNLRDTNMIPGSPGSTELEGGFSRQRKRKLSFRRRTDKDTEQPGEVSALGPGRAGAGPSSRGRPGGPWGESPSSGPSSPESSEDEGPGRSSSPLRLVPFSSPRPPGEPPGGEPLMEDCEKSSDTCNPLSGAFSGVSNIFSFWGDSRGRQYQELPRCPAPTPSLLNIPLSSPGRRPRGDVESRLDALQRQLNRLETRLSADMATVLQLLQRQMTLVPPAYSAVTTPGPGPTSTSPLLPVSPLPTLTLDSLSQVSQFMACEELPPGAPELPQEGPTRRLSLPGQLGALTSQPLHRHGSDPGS

| Structure (SMILES) | hERG current change (%, negative = inhibition) at 1uM [%] |
| --- | --- |
| S=C(NCc1ccc(Cl)cc1)N1CCN(c2ccccn2)CC1 | 2.63 |
| CC1(C)CC(=O)C(CS(=O)(=O)c2ccccc2)=C(O)C1 | 6.22 |
| O=C(CNS(=O)(=O)c1c(F)cc(F)cc1Br)OCC(=O)N1CCCC1=O | 13.1 |
| CS(=O)(=O)N1CC2CCCN2c2ccc(C(F)(F)F)cc21 (stereo not drawn) | 7.13 |
| O=C(NCc1ccc(Cl)cc1)C(=O)c1c[nH]c2ccccc12 | 10.4 |
| CCn1nc(C)c([N+](=O)[O-])c1C(=O)NNC(=O)c1ccc(Cl)cc1 | 2.72 |
| O=C(C1CCC1)N1CCc2cc(S(=O)(=O)N3CCN(c4ccccn4)CC3)ccc21 | 2.29 |
| Cc1ccccc1NS(=O)(=O)c1cccc(C(=O)Nc2cccc(C(=O)O)c2)c1 | 17.1 |
| COc1cccc(OC)c1C(=O)Nc1nc2cc3c(cc2s1)OCO3 | 12 |
| CC(C)c1ccccc1-n1cc[nH]c1=S | 8.68 |
| CN(C)c1ccc(NC(=O)Nc2cccc3ccccc23)cc1 | 15.6 |
| COc1ccc(C(=O)OC(C)C(=O)Nc2cc(C(F)(F)F)ccc2Cl)c(OC)c1OC (stereo not drawn) | -3.09 |
| Cc1cc(C)nc(N2CCC(C(=O)NNC(=O)Cc3ccccc3)CC2)n1 | 10.2 |
| O=c1c(-c2ccccc2)c(O)c2ccccc2n1-c1ccccc1 | 8.71 |
| O=C(Cn1nnc(-c2ccc(Cl)cc2)n1)NCC1CCCCC1 | 2.27 |
| CCn1c(COc2ccccc2C)nnc1SCC(=O)CC(=O)Nc1ccccc1 | 11.7 |
| Cn1c(O)c(C=NCCN2CCNCC2)c(=O)n(C)c1=O | 9.99 |
| O=C(O)c1ccc2c(c1)C(=O)N(c1ccc(/C=C/C(=O)c3ccccc3)cc1)C2=O | 3.28 |
| Cc1ccc(S(=O)(=O)N(C)CCCC(=O)n2nc(C)cc2C)cc1 | 7.9 |
| CC(C)Oc1ccc(CN2CCCC(CO)(Cc3ccc(F)cc3)C2)cc1 (stereo not drawn) | 2.29 |
| CCN(CC(=O)Nc1ccc(N2CCOCC2)cc1)C(=O)Cc1ccccc1 | 14.6 |
| Cc1ccc2c(CC(=O)OCc3cc(=O)n4c(n3)sc3ccccc34)coc2c1 | 2.62 |

| Structure (SMILES) | hERG current change (%, negative = inhibition) at 1uM [%] |
| --- | --- |
| Cc1ccc2nc(N(CCCN(C)C)C(=O)c3ccc(S(=O)(=O)N4CCCCCC4)cc3)sc2c1.Cl | 0.393 |
| Cn1c(SCC(=O)NC2CCCCC2)nnc1-c1ccncc1 | 3.91 |
| O=C(Nc1ccc(F)cc1)Nc1ccc(N2CCOCC2)c2nonc12 | 5.31 |
| COc1ccc(N(CC(=O)NCc2ccccc2)S(=O)(=O)c2c(C)noc2C)cc1 | 14.5 |
| O=C(Nc1ccncc1)c1cccc(F)c1 | 2.77 |
| CCOC(=O)c1cccnc1NC(=O)c1ccccc1 | 1.1 |
| COc1ccc(C(=O)COC(=O)CNC(=O)C2CCCCC2)c(OC)c1 | -2.58 |
| CN(C)CCCn1c(SCC(=O)N2c3ccccc3Sc3ccccc32)nc2ccccc2c1=O | 0.0392 |
| O=C(Oc1ccc(N(Cc2cccs2)C2=NS(=O)(=O)c3ccccc32)cc1)c1ccccc1F | -1.46 |
| COc1ccc(CCNC(=O)CCSCc2ccccc2F)cc1OC | 17.9 |
| O=C(NC(=S)Nc1ccc2c(c1)OCCO2)c1ccccc1 | 2.52 |
| CN(C)CCCNC(=O)c1cc(C(=O)Cc2ccccc2)c[nH]1 | 9.7 |
| Cc1cc(C)c(C#N)c(N2CCN(Cc3ccc4c(c3)OCO4)CC2)n1 | 1.32 |
| O=C(CN1CCCC1)N1CCN(c2ccccc2)CC1 | 3.19 |
| CN(C)CCCNC(=O)c1cc(Br)ccc1Cl | 3.74 |
| O=C(O)CCN1C(=O)CC(N2C(=O)/C(=C/c3ccc(Cl)cc3)SC2=S)C1=O (stereo not drawn) | 14.8 |
| COc1ccc(OCc2cc(C(=O)N3CCC(OC)CC3)no2)c2ccccc12 | 10.7 |
| CCCCOC(=O)C1=C(C)Nc2ncnn2C1c1cc(OC)c(OC)cc1OC (stereo not drawn) | 6.11 |
| Cc1noc(C)c1S(=O)(=O)N1CCCC(C(=O)NCc2ccccc2Cl)C1 (stereo not drawn) | 14.1 |
| Cc1cc(C(=O)CN2C(=O)c3ccccc3S2(=O)=O)c(C)n1CC1CCCO1 (stereo not drawn) | 8.66 |
| CC(CN1CCOCC1)OC(=O)c1cccs1.Cl (stereo not drawn) | 10.6 |
| Cc1ccc(O)c(C(=O)c2cnc3c(c2)c(C)nn3C)c1 | 13 |

| Structure (SMILES) | hERG current change (%, negative = inhibition) at 1uM [%] |
| --- | --- |
| O=C(NCCc1ccccc1)C1CCN(S(=O)(=O)c2cccc3nsnc23)CC1 | 16.5 |
| COc1ccc(/C=C/C(=O)Nc2ccc(S(=O)(=O)Nc3cc(C)nc(C)n3)cc2)cc1OC | -3.27 |
| Cc1cc(NC(=O)COC(=O)c2ccc(F)c(S(=O)(=O)N3CCOCC3)c2)no1 | -0.873 |
| Cc1ccn2c(C=O)c(-c3ccc(F)cc3)c(C=O)c2c1 | 7.2 |
| CCOC(=O)C1=NNC(C(=O)c2ccc(Cl)cc2)C1c1ccc(OC)cc1 (stereo not drawn) | 13.2 |
| O=C(Nc1ccccc1C(=O)O)c1cc(S(=O)(=O)N2CCOCC2)cs1 | -23.8 |
| Cl.O=C(Nc1ccnc(=O)[nH]1)c1sc2ccccc2c1Cl | 13 |
| CN(C)CCN(Cc1ccccc1)c1ccnc(N(C)C)c1C#N | -4.98 |
| CCOC(=O)CCc1c(C)c2ccc(OCC)c(C)c2oc1=O | -4.06 |
| O=C(CSc1nnc(-c2ccccc2F)o1)N1CCNC1=O | -0.912 |
| CCOc1ccc(CCNC(=O)COC(=O)Cn2nc(C)c([N+](=O)[O-])c2C)cc1OCC | 1.91 |
| CC1(NC(=O)COc2ccccc2-c2ccccc2)CCS(=O)(=O)C1 (stereo not drawn) | 1.53 |
| CCOC(=O)N1CCN(C(=O)CN(c2ccc(OCc3ccccc3)cc2)S(C)(=O)=O)CC1 | -12 |
| COc1ccc(CCNC(=O)C2CCN(C(=O)c3ccc(Br)cc3)CC2)cc1 | -12.8 |
| Cc1ccc(-n2c(O)c(C=NCc3ccccn3)c(=O)[nH]c2=S)cc1 | 12.5 |
| C=CCn1c(SCC(=O)NCc2cccs2)nnc1C1CCCCC1 | 11 |
| COc1cc(/C=N/NC(=O)c2[nH]nc3c2CCc2ccccc2-3)ccc1O | 2.68 |
| O=C(c1cc(COc2c(F)cccc2F)on1)N1CCSCC1 | 9.27 |
| CC(C)OC(=O)/C(=C/c1cccnc1)NC(=O)c1ccccc1 | 10.7 |
| CN(C)C(=O)CSc1nnc(-c2ccncc2)n1Cc1ccco1 | 18.3 |
| Cc1ccc(Cl)cc1NC(=O)c1ccc(CSc2nnnn2C)cc1 | 9.74 |
| CC1=NN(c2ccc(C)c(C)c2)C(=O)C1C(c1cccc(O)c1)C1C(=O)N(c2ccc(C)c(C)c2)N=C1C (stereo not drawn) | 21.1 |

| Structure (SMILES) | hERG current change (%, negative = inhibition) at 1uM [%] |
| --- | --- |
| O=C(COc1ccccc1)Nc1cc(Cl)ccc1Cl | 20.7 |
| O=C(CCC1CCCN(C(=O)CCC(F)(F)F)C1)NCc1ccc(F)c(F)c1 (stereo not drawn) | 8.35 |
| Cn1ncc([N+](=O)[O-])c1C(=O)Nc1ccc(-c2nc3ccccc3o2)cc1 | 13.4 |
| Cc1ccc(C)c(OCC(=O)Nc2ccncc2)c1 | 10.5 |
| Cc1cc(C)n2c(SCc3ccc(Br)cc3)nnc2n1 | 2.93 |
| CCC(C)c1ccc(NC(=O)Nc2cccnc2)cc1 (stereo not drawn) | -3.68 |
| COc1ccc(CCN2CCCC(CN(C)Cc3cc(OC)c(OC)c(OC)c3)C2)cc1 (stereo not drawn) | -0.385 |
| COC(=O)Cc1cc(=O)n2[nH]cnc2n1 | 9.03 |
| O=S(=O)(NC1CC1)c1ccc(S(=O)(=O)N2CCC3(CC2)OCCO3)cc1 | 6.95 |
| COc1ccc(-c2oc3ccc(-c4ccc(OC)nc4)cc3c2-c2ccc(OC)cc2)cc1 | 5.17 |
| C/C(=C/C=N/Nc1nc(N2CCCCC2)nc(N2CCCCC2)n1)c1ccccc1 | 5.29 |
| COc1ccc(Cc2nn3c(-c4cc(OC)c(OC)c(OC)c4)nnc3s2)cc1 | 4.17 |
| O=C(c1c[nH]c2ccccc12)N1CCN(Cc2ccccc2)CC1 | 0.531 |
| Cc1cc(=O)[nH]c(N/N=C/c2c[nH]c3ccccc23)n1 | 9.01 |
| Cc1cc(OCCCCOc2ccc(C#N)cc2)ccc1[N+](=O)[O-] | -10.5 |
| CCOC(=O)C1CCN(CC(=O)N2C(C)CCCC2C)CC1.O=C(O)C(=O)O (stereo not drawn) | 10.3 |
| O=C(CN1CCOCC1)N1CCN(S(=O)(=O)c2ccccc2)C1c1ccccc1 (stereo not drawn) | -12.5 |
| C#CCOCCOCCOCCNc1nc(N2CCN(C(=O)[C@H](CCCCN)n3cc(C(N)CO)nn3)CC2)nc(N2CCN(C(=O)[C@H](CCCCN)n3cc(C(N)COC(=O)C(F)(F)F)nn3)CC2)n1.Cl (stereo partly drawn) | -1.44 |
| CC1c2ccccc2N(NC(=O)Cc2ccccc2)C1C (stereo not drawn) | 8.99 |
| CCC(C)c1ccccc1NC(=O)C(C)NCCN(C)C.O=C(O)C(=O)O (stereo not drawn) | 15.9 |
| N#CCC(=O)N/N=C/c1cc([N+](=O)[O-])ccc1N1CCCC1 | 5.24 |
